The other results are listed elsewhere or left out. Interaction screen of human proteins with wild-type SARS-CoV-2 proteins by split-DHFR complementation in yeast, 1 µg/mL methotrexate. Value = fitness of the pair (three or more lineages) minus that of the viral protein without a human partner, on a scale set by negative (0) and fused positive (1) controls, mean of up to three cultures; higher = more likely to interact. Active = false discovery rate below 0.05 (one-sided t-test) in at least one culture. Nearly all pairs are not hits, and differences among them are mostly noise (correlation between cultures about 0.3); most hits were seen in one culture only. Human sequences are the Swiss-Prot entries looked up by gene name; the clone may be another isoform. NSP2 values were corrected by the authors for a growth advantage. Listed are human proteins with a hit and a random twelfth of the others.
B1: FGF10, O15520 (protein)
chain: MWKWILTHCASAFPHLPGCCCCCFLLLFLVSSVPVTCQALGQDMVSPEATNSSSSSFSSPSSAGRHVRSYNHLQGDVRWRKLFSFTKYFLKIEKNGKVSGTKKENCPYSILEITSVEIGVVAVKAINSNYYLAMNKKGKLYGSKEFNNDCKLKERIEENGYNTYASFNWQHNGRQMYVALNGKGAPRRGQKTRRKNTSAHFLPMVVHS
B2: KIAA1143, Q96AT1 (protein)
chain: MSKRNQVSYVRPAEPAFLARFKERVGYREGPTVETKRIQPQPPDEDGDHSDKEDEQPQVVVLKKGDLSVEEVMKIKAEIKAAKADEEPTPADGRIIYRKPVKHPSDEKYSGLTASSKKKKPNEDEVNQDSVKKNSQKQIKNSSLLSFDNEDENE
B3: C5orf24, Q7Z6I8 (protein)
chain: MMHPVASSNPAFCGPGKPSCLNEDAMRAADQFDIYSSQQSKYSHTVNHKPMVCQRQDPLNETHLQTTSGRSIEIKDELKKKKNLNRSGKRGRPSGTTKSAGYRTSTGRPLGTTKAAGFKTSPGRPLGTTKAAGYKVSPGRPPGSIKALSRLADLGYGCGTAAFPYPMMHGRAVHGVEETSSEVKPPNE
B4: SUSD4, Q5VX71 (protein)
chain: MYHGMNPSNGDGFLEQQQQQQQPQSPQRLLAVILWFQLALCFGPAQLTGGFDDLQVCADPGIPENGFRTPSGGVFFEGSVARFHCQDGFKLKGATKRLCLKHFNGTLGWIPSDNSICVQEDCRIPQIEDAEIHNKTYRHGEKLIITCHEGFKIRYPDLHNMVSLCRDDGTWNNLPICQGCLRPLASSNGYVNISELQTSFPVGTVISYRCFPGFKLDGSAYLECLQNLIWSSSPPRCLALEVCPLPPMVSHGDFVCHPRPCERYNHGTVVEFYCDPGYSLTSDYKYITCQYGEWFPSYQVYCIKSEQTWPSTHETLLTTWKIVAFTATSVLLVLLLVILARMFQTKFKAHFPPRGPPRSSSSDPDFVVVDGVPVMLPSYDEAVSGGLSALGPGYMASVGQGCPLPVDDQSPPAYPGSGDTDTGPGESETCDSVSGSSELLQSLYSPPRCQESTHPASDNPDIIASTAEEVASTSPGIDIADEIPLMEEDP
B5: FUK, Q8N0W3 (protein)
chain: MEQPKGVDWTVIILTCQYKDSVQVFQRELEVRQKREQIPAGTLLLAVEDPEKRVGSGGATLNALLVAAEHLSARAGFTVVTSDVLHSAWILILHMGRDFPFDDCGRAFTCLPVENPEAPVEALVCNLDCLLDIMTYRLGPGSPPGVWVCSTDMLLSVPANPGISWDSFRGARVIALPGSPAYAQNHGVYLTDPQGLVLDIYYQGTEAEIQRCVRPDGRVPLVSGVVFFSVETAERLLATHVSPPLDACTYLGLDSGARPVQLSLFFDILHCMAENVTREDFLVGRPPELGQGDADVAGYLQSARAQLWRELRDQPLTMAYVSSGSYSYMTSSASEFLLSLTLPGAPGAQIVHSQVEEQQLLAAGSSVVSCLLEGPVQLGPGSVLQHCHLQGPIHIGAGCLVTGLDTAHSKALHGRELRDLVLQGHHTRLHGSPGHAFTLVGRLDSWERQGAGTYLNVPWSEFFKRTGVRAWDLWDPETLPAEYCLPSARLFPVLHPSRELGPQDLLWMLDHQEDGGEALRAWRASWRLSWEQLQPCLDRAATLASRRDLFFRQALHKARHVLEARQDLSLRPLIWAAVREGCPGPLLATLDQVAAGAGDPGVAARALACVADVLGCMAEGRGGLRSGPAANPEWMRPFSYLECGDLAAGVEALAQERDKWLSRPALLVRAARHYEGAGQILIRQAVMSAQHFVSTEQVELPGPGQWVVAECPARVDFSGGWSDTPPLAYELGGAVLGLAVRVDGRRPIGARARRIPEPELWLAVGPRQDEMTVKIVCRCLADLRDYCQPHAPGALLKAAFICAGIVHVHSELQLSEQLLRTFGGGFELHTWSELPHGSGLGTSSILAGTALAALQRAAGRVVGTEALIHAVLHLEQVLTTGGGWQDQVGGLMPGIKVGRSRAQLPLKVEVEEVTVPEGFVQKLNDHLLLVYTGKTRLARNLLQDVLRSWYARLPAVVQNAHSLVRQTEECAEGFRQGSLPLLGQCLTSYWEQKKLMAPGCEPLTVRRMMDVLAPHVHGQSLAGAGGGGFLYLLTKEPQQKEALEAVLAKTEGLGNYSIHLVEVDTQGLSLKLLGTEASTCCPFP

Biological target: SARS-CoV-2 E
Experiment: yeast fitness gain over the viral ORF with no human partner (scaled fitness); higher = more likely to interact
Experimental: (§1)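 Split mouse DHFR complementation in pooled diploid yeast: human ORFeome clones carry one fragment and viral ORFs the other; barcoded lineages compete in 1 µg/mL methotrexate and fitness is read by barcode sequencing in up to three cultures.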

| Binder | yeast fitness gain |
| --- | --- |
| B1 | inactive: 0.000838 |
| B2 | inactive: -0.0202 |
| B3 | inactive: -0.0251 |
| B4 | inactive: 0.0553 |
| B5 | inactive: -0.0545 |

Biological target: SARS-CoV-2 M
Experiment: as above
Experimental: as §1

| Binder | yeast fitness gain |
| --- | --- |
| B1 | inactive: -0.0388 |
| B2 | inactive: 0.0316 |
| B3 | inactive: -0.0606 |
| B4 | inactive: -0.0859 |
| B5 | inactive: -0.0157 |

Biological target: SARS-CoV-2 N
Experiment: as above
Experimental: as §1

| Binder | yeast fitness gain |
| --- | --- |
| B1 | inactive: 0.0586 |
| B2 | inactive: -0.0672 |
| B3 | inactive: -0.00645 |
| B5 | inactive: 0.0434 |

Biological target: SARS-CoV-2 NSP1
Experiment: as above
Experimental: as §1

| Binder | yeast fitness gain |
| --- | --- |
| B1 | inactive: 0.0218 |
| B4 | inactive: 0.0144 |
| B5 | inactive: 0.0722 |

Biological target: SARS-CoV-2 NSP10
Experiment: as above
Experimental: as §1

| Binder | yeast fitness gain |
| --- | --- |
| B1 | inactive: -0.0309 |
| B3 | inactive: 0.0169 |
| B4 | inactive: 0.00821 |
| B5 | inactive: -0.00116 |

Biological target: SARS-CoV-2 NSP12
Experiment: as above
Experimental: as §1

| Binder | yeast fitness gain |
| --- | --- |
| B1 | inactive: 0.0761 |
| B3 | inactive: -0.219 |
| B4 | inactive: 0.0243 |
| B5 | inactive: -0.0376 |

Biological target: SARS-CoV-2 NSP13
Experiment: as above
Experimental: as §1

| Binder | yeast fitness gain |
| --- | --- |
| B1 | inactive: -0.00699 |
| B3 | inactive: -0.0174 |
| B4 | inactive: -0.0156 |
| B5 | inactive: -0.0181 |

Biological target: SARS-CoV-2 NSP14
Experiment: as above
Experimental: as §1

| Binder | yeast fitness gain |
| --- | --- |
| B1 | inactive: -0.282 |
| B2 | inactive: -0.26 |
| B4 | inactive: 0.0883 |
| B5 | inactive: 0.0916 |

Biological target: SARS-CoV-2 NSP15
Experiment: as above
Experimental: as §1

| Binder | yeast fitness gain |
| --- | --- |
| B1 | inactive: 0.0155 |
| B2 | inactive: -0.011 |
| B4 | inactive: -0.0536 |
| B5 | inactive: 0.0273 |

Biological target: SARS-CoV-2 NSP16
Experiment: as above
Experimental: as §1

| Binder | yeast fitness gain |
| --- | --- |
| B1 | inactive: -0.0452 |
| B2 | inactive: -0.041 |
| B3 | inactive: 0.0612 |
| B5 | inactive: 0.058 |

Biological target: SARS-CoV-2 NSP2
Experiment: as above
Experimental: as §1

| Binder | yeast fitness gain |
| --- | --- |
| B1 | inactive: -0.174 |
| B3 | inactive: -0.376 |
| B4 | inactive: -0.128 |
| B5 | inactive: -0.102 |

Biological target: SARS-CoV-2 NSP4
Experiment: as above
Experimental: as §1

| Binder | yeast fitness gain |
| --- | --- |
| B1 | inactive: -0.0106 |
| B2 | inactive: 0.0701 |
| B4 | inactive: 0.0397 |

Biological target: SARS-CoV-2 NSP5
Experiment: as above
Experimental: as §1

| Binder | yeast fitness gain |
| --- | --- |
| B1 | inactive: -0.00909 |
| B2 | inactive: -0.00507 |
| B3 | inactive: 0.116 |
| B4 | inactive: -0.01 |
| B5 | inactive: 0.0555 |

Biological target: SARS-CoV-2 NSP6
Experiment: as above
Experimental: as §1

| Binder | yeast fitness gain |
| --- | --- |
| B1 | inactive: 0.015 |
| B2 | inactive: 0.0278 |
| B4 | inactive: 0.0286 |
| B5 | inactive: -0.0436 |

Biological target: SARS-CoV-2 NSP7
Experiment: as above
Experimental: as §1

| Binder | yeast fitness gain |
| --- | --- |
| B1 | inactive: 0.0783 |
| B2 | inactive: -0.273 |
| B3 | inactive: -0.154 |
| B4 | inactive: 0.0345 |
| B5 | inactive: -0.0704 |

Biological target: SARS-CoV-2 NSP8
Experiment: as above
Experimental: as §1

| Binder | yeast fitness gain |
| --- | --- |
| B1 | inactive: 0.0433 |
| B2 | inactive: 0.0164 |
| B4 | inactive: -0.00283 |
| B5 | inactive: 0.0166 |

Biological target: SARS-CoV-2 NSP9
Experiment: as above
Experimental: as §1

| Binder | yeast fitness gain |
| --- | --- |
| B1 | inactive: -0.105 |
| B4 | inactive: -0.165 |
| B5 | inactive: -0.129 |

Biological target: SARS-CoV-2 ORF10
Experiment: as above
Experimental: as §1

| Binder | yeast fitness gain |
| --- | --- |
| B1 | inactive: -0.00547 |
| B3 | inactive: -0.00196 |
| B4 | inactive: 0.0368 |
| B5 | inactive: 0.0114 |

Biological target: SARS-CoV-2 ORF3A
Experiment: as above
Experimental: as §1

| Binder | yeast fitness gain |
| --- | --- |
| B1 | inactive: 0.0134 |
| B2 | inactive: -0.0891 |
| B4 | inactive: -0.0375 |
| B5 | inactive: 0.0857 |

Biological target: SARS-CoV-2 ORF3B
Experiment: as above
Experimental: as §1

| Binder | yeast fitness gain |
| --- | --- |
| B1 | inactive: -0.0187 |
| B2 | inactive: -0.0628 |
| B3 | inactive: -0.264 |
| B4 | inactive: 0.02 |
| B5 | inactive: 0.00965 |

Biological target: SARS-CoV-2 ORF6
Experiment: as above
Experimental: as §1

| Binder | yeast fitness gain |
| --- | --- |
| B1 | inactive: 0.00541 |
| B3 | inactive: 0.00252 |
| B4 | inactive: 0.00138 |
| B5 | inactive: 0.00795 |

Biological target: SARS-CoV-2 ORF7A
Experiment: as above
Experimental: as §1

| Binder | yeast fitness gain |
| --- | --- |
| B1 | inactive: 0.0198 |
| B2 | inactive: -0.114 |
| B3 | inactive: -0.0739 |
| B4 | inactive: 0.00878 |
| B5 | inactive: -0.0348 |

Biological target: SARS-CoV-2 ORF7B
Experiment: as above
Experimental: as §1

| Binder | yeast fitness gain |
| --- | --- |
| B1 | inactive: 0.0393 |
| B3 | inactive: -0.261 |
| B4 | inactive: 0.0392 |
| B5 | inactive: -0.00244 |

Biological target: SARS-CoV-2 ORF8
Experiment: as above
Experimental: as §1

| Binder | yeast fitness gain |
| --- | --- |
| B1 | inactive: 0.0148 |
| B3 | inactive: -0.0832 |
| B4 | inactive: -0.00774 |
| B5 | inactive: -0.0282 |

Biological target: SARS-CoV-2 ORF9B
Experiment: as above
Experimental: as §1

| Binder | yeast fitness gain |
| --- | --- |
| B1 | inactive: 0.0261 |
| B3 | inactive: -0.017 |
| B4 | inactive: 0.01 |
| B5 | inactive: 0.0153 |

Biological target: SARS-CoV-2 ORF9Bwu (the 73-codon ORF)
Experiment: as above
Experimental: as §1

| Binder | yeast fitness gain |
| --- | --- |
| B1 | inactive: -0.0362 |
| B2 | inactive: 0.0643 |
| B4 | inactive: 0.0829 |
| B5 | inactive: -0.0133 |

Biological target: SARS-CoV-2 S
Experiment: as above
Experimental: as §1

| Binder | yeast fitness gain |
| --- | --- |
| B1 | inactive: 0.0111 |
| B2 | inactive: -0.0623 |
| B3 | inactive: 0.089 |
| B4 | inactive: 0.0219 |
| B5 | inactive: 0.0282 |
